According to the supplement of paper PMC11741623:
This is one part of the list. Interaction screen of human proteins with wild-type SARS-CoV-2 proteins by split-DHFR complementation in yeast, 1 µg/mL methotrexate. Value = fitness of the pair (three or more lineages) minus that of the viral protein without a human partner, on a scale set by negative (0) and fused positive (1) controls, mean of up to three cultures; higher = more likely to interact. Active = false discovery rate below 0.05 (one-sided t-test) in at least one culture. Nearly all pairs are not hits, and differences among them are mostly noise (correlation between cultures about 0.3); most hits were seen in one culture only. Human sequences are the Swiss-Prot entries looked up by gene name; the clone may be another isoform. NSP2 values were corrected by the authors for a growth advantage. Listed are human proteins with a hit and a random twelfth of the others.

B1: RNF144A, P50876 (protein)
chain: MTTTRYRPTWDLALDPLVSCKLCLGEYPVEQMTTIAQCQCIFCTLCLKQYVELLIKEGLETAISCPDAACPKQGHLQENEIECMVAAEIMQRYKKLQFEREVLFDPCRTWCPASTCQAVCQLQDVGLQTPQPVQCKACRMEFCSTCKASWHPGQGCPETMPITFLPGETSAAFKMEEDDAPIKRCPKCKVYIERDEGCAQMMCKNCKHAFCWYCLESLDDDFLLIHYDKGPCRNKLGHSRASVIWHRTQVVGIFAGFGLLLLVASPFLLLATPFVLCCKCKCSKGDDDPLPT
B2: SCMH1, Q96GD3 (protein)
chain: MLVCYSVLACEILWDLPCSIMGSPLGHFTWDKYLKETCSVPAPVHCFKQSYTPPSNEFKISMKLEAQDPRNTTSTCIATVVGLTGARLRLRLDGSDNKNDFWRLVDSAEIQPIGNCEKNGGMLQPPLGFRLNASSWPMFLLKTLNGAEMAPIRIFHKEPPSPSHNFFKMGMKLEAVDRKNPHFICPATIGEVRGSEVLVTFDGWRGAFDYWCRFDSRDIFPVGWCSLTGDNLQPPGTKVVIPKNPYPASDVNTEKPSIHSSTKTVLEHQPGQRGRKPGKKRGRTPKTLISHPISAPSKTAEPLKFPKKRGPKPGSKRKPRTLLNPPPASPTTSTPEPDTSTVPQDAATIPSSAMQAPTVCIYLNKNGSTGPHLDKKKVQQLPDHFGPARASVVLQQAVQACIDCAYHQKTVFSFLKQGHGGEVISAVFDREQHTLNLPAVNSITYVLRFLEKLCHNLRSDNLFGNQPFTQTHLSLTAIEYSHSHDRYLPGETFVLGNSLARSLEPHSDSMDSASNPTNLVSTSQRHRPLLSSCGLPPSTASAVRRLCSRGVLKGSNERRDMESFWKLNRSPGSDRYLESRDASRLSGRDPSSWTVEDVMQFVREADPQLGPHADLFRKHEIDGKALLLLRSDMMMKYMGLKLGPALKLSYHIDRLKQGKF
B3: SLC31A2, O15432 (protein)
chain: MAMHFIFSDTAVLLFDFWSVHSPAGMALSVLVLLLLAVLYEGIKVGKAKLLNQVLVNLPTSISQQTIAETDGDSAGSDSFPVGRTHHRWYLCHFGQSLIHVIQVVIGYFIMLAVMSYNTWIFLGVVLGSAVGYYLAYPLLSTA
B4: SURF1, Q15526 (protein)
chain: MAAVAALQLGLRAAGLGRAPASAAWRSVLRVSPRPGVAWRPSRCGSSAAEASATKAEDDSFLQWVLLLIPVTAFGLGTWQVQRRKWKLNLIAELESRVLAEPVPLPADPMELKNLEYRPVKVRGCFDHSKELYMMPRTMVDPVREAREGGLISSSTQSGAYVVTPFHCTDLGVTILVNRGFVPRKKVNPETRQKGQIEGEVDLIGMVRLTETRQPFVPENNPERNHWHYRDLEAMARITGAEPIFIDANFQSTVPGGPIGGQTRVTLRNEHLQYIVTWYGLSAATSYLWFKKFLRGTPGV

Biological target: SARS-CoV-2 E
Assay: yeast fitness gain over the viral ORF with no human partner (scaled fitness); higher = more likely to interact
Procedure: (§1)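 Split mouse DHFR complementation in pooled diploid yeast: human ORFeome clones carry one fragment and viral ORFs the other; barcoded lineages compete in 1 µg/mL methotrexate and fitness is read by barcode sequencing in up to three cultures.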

Binder | yeast fitness gain
B1 | inactive: 0.103
B2 | inactive: 0.137
B3 | inactive: 0.00729
B4 | inactive: -0.0532

Biological target: SARS-CoV-2 M
Assay: as above
Procedure: as §1

Binder | yeast fitness gain
B1 | inactive: 0.0102
B2 | inactive: 0.0189
B3 | inactive: 0.0379

Biological target: SARS-CoV-2 N
Assay: as above
Procedure: as §1

Binder | yeast fitness gain
B1 | inactive: 0.0194
B2 | inactive: -0.0539
B4 | inactive: -0.0112

Biological target: SARS-CoV-2 NSP1
Assay: as above
Procedure: as §1

Binder | yeast fitness gain
B1 | inactive: -0.028
B2 | inactive: -0.0665
B3 | inactive: -0.188
B4 | inactive: -0.00343

Biological target: SARS-CoV-2 NSP10
Assay: as above
Procedure: as §1

Binder | yeast fitness gain
B1 | inactive: -0.0573
B2 | inactive: -0.00813
B3 | inactive: -0.038

Biological target: SARS-CoV-2 NSP12
Assay: as above
Procedure: as §1

Binder | yeast fitness gain
B1 | inactive: -0.0866
B2 | inactive: 0.0518
B3 | inactive: -0.0209

Biological target: SARS-CoV-2 NSP13
Assay: as above
Procedure: as §1

Binder | yeast fitness gain
B1 | inactive: -0.0204
B2 | inactive: 0.0125
B3 | inactive: 0.0322

Biological target: SARS-CoV-2 NSP14
Assay: as above
Procedure: as §1

Binder | yeast fitness gain
B1 | inactive: -0.369

Biological target: SARS-CoV-2 NSP15
Assay: as above
Procedure: as §1

Binder | yeast fitness gain
B1 | inactive: 0.11
B2 | inactive: 0.0705
B3 | inactive: 0.143

Biological target: SARS-CoV-2 NSP16
Assay: as above
Procedure: as §1

Binder | yeast fitness gain
B1 | inactive: 0.0763
B2 | inactive: 0.0259
B3 | inactive: 0.0654
B4 | inactive: 0.0122

Biological target: SARS-CoV-2 NSP2
Assay: as above
Procedure: as §1

Binder | yeast fitness gain
B1 | inactive: -0.244
B2 | inactive: -0.161
B3 | inactive: -0.0572

Biological target: SARS-CoV-2 NSP4
Assay: as above
Procedure: as §1

Binder | yeast fitness gain
B1 | inactive: -0.264
B3 | inactive: 0.114

Biological target: SARS-CoV-2 NSP5
Assay: as above
Procedure: as §1

Binder | yeast fitness gain
B1 | inactive: -0.0279
B2 | inactive: 0.00652

Biological target: SARS-CoV-2 NSP6
Assay: as above
Procedure: as §1

Binder | yeast fitness gain
B1 | inactive: 0.0507
B2 | inactive: 0.0269
B3 | inactive: 0.026

Biological target: SARS-CoV-2 NSP7
Assay: as above
Procedure: as §1

Binder | yeast fitness gain
B1 | inactive: -0.00587
B2 | inactive: -0.0759
B3 | inactive: 0.0508

Biological target: SARS-CoV-2 NSP8
Assay: as above
Procedure: as §1

Binder | yeast fitness gain
B1 | inactive: -0.00801
B2 | inactive: -0.0793
B3 | inactive: -0.0196
B4 | inactive: 0.0415

Biological target: SARS-CoV-2 NSP9
Assay: as above
Procedure: as §1

Binder | yeast fitness gain
B1 | inactive: -0.0344
B2 | inactive: 0.00541
B3 | inactive: -0.314
B4 | inactive: 0.0728

Biological target: SARS-CoV-2 ORF10
Assay: as above
Procedure: as §1

Binder | yeast fitness gain
B1 | inactive: 0.000783
B2 | inactive: -0.0456
B3 | inactive: 0.0197

Biological target: SARS-CoV-2 ORF3A
Assay: as above
Procedure: as §1

Binder | yeast fitness gain
B1 | inactive: -0.0429
B2 | inactive: -0.0297
B3 | inactive: -0.0606
B4 | inactive: 0.00529

Biological target: SARS-CoV-2 ORF3B
Assay: as above
Procedure: as §1

Binder | yeast fitness gain
B1 | inactive: -0.0233
B2 | inactive: 0.0137
B3 | inactive: 0.0436

Biological target: SARS-CoV-2 ORF6
Assay: as above
Procedure: as §1

Binder | yeast fitness gain
B1 | inactive: -0.00304
B2 | inactive: -0.0132
B3 | inactive: 0.0565

Biological target: SARS-CoV-2 ORF7A
Assay: as above
Procedure: as §1

Binder | yeast fitness gain
B1 | inactive: 0.0166
B2 | inactive: 0.00601
B3 | inactive: 0.0207

Biological target: SARS-CoV-2 ORF7B
Assay: as above
Procedure: as §1

Binder | yeast fitness gain
B1 | inactive: -0.0191
B2 | inactive: 0.00801
B3 | inactive: 0.124

Biological target: SARS-CoV-2 ORF8
Assay: as above
Procedure: as §1

Binder | yeast fitness gain
B1 | inactive: -0.0374
B2 | inactive: 0.028
B3 | inactive: 0.0156

Biological target: SARS-CoV-2 ORF9B
Assay: as above
Procedure: as §1

Binder | yeast fitness gain
B1 | inactive: 0.0308
B2 | inactive: 0.0272
B3 | inactive: -0.0407

Biological target: SARS-CoV-2 S
Assay: as above
Procedure: as §1

Binder | yeast fitness gain
B1 | inactive: 0.0405
B2 | inactive: 0.0405
B3 | inactive: 0.0712

Biological target: SARS-CoV-2 ORF9Bwu (the 73-codon ORF)
Assay: as above
Procedure: as §1

Binder | yeast fitness gain
B2 | inactive: -0.0154
B3 | inactive: 0.015
B4 | inactive: 0.0161
